Among the data in article PMC9911399, “Two distinct binding modes provide the RNA-binding protein RbFox with extraordinary sequence specificity” are binding signal values, retold here.

T1: RBFOX1 RRM (Homo sapiens, UniProt Q9NWB1 109-208)
T1 sequence: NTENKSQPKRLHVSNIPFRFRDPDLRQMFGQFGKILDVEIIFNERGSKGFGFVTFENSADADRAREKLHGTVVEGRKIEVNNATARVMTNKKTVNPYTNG

B1: GUUAUAC (DNA:RNA)
RNA: GGGAGACCGGAAUUCAGAUUGUCCGUUAUACUUAAAUCCCGUCGUAGCCACCA
DNA 1: CAATCTGAATTCCGGTCTCCC
DNA 2: TGGTGGCTACGACGGGATT
B2: GGCUGGG (DNA:RNA)
RNA: B1 RNA with U26G, U27C, A28U, U29G, A30G, C31G
DNA 1: CAATCTGAATTCCGGTCTCCC
DNA 2: TGGTGGCTACGACGGGATT
B3: AAAUAUC (DNA:RNA)
RNA: B1 RNA with G25A, U26A, U27A, A28U, U29A, A30U
DNA 1: CAATCTGAATTCCGGTCTCCC
DNA 2: TGGTGGCTACGACGGGATT
B4: AUGCGCC (DNA:RNA)
RNA: B1 RNA with G25A, U27G, A28C, U29G, A30C
DNA 1: CAATCTGAATTCCGGTCTCCC
DNA 2: TGGTGGCTACGACGGGATT
B5: CCGACGC (DNA:RNA)
RNA: B1 RNA with G25C, U26C, U27G, U29C, A30G
DNA 1: CAATCTGAATTCCGGTCTCCC
DNA 2: TGGTGGCTACGACGGGATT
B6: CCGCGUA (DNA:RNA)
RNA: GGGAGACCGGAAUUCAGAUUGUCCCCGCGUAUUAAAUCCCGUCGUAGCCACCA
DNA 1: CAATCTGAATTCCGGTCTCCC
DNA 2: TGGTGGCTACGACGGGATT
B7: GCACACA (DNA:RNA)
RNA: B6 RNA with C25G, G27A, G29A, U30C
DNA 1: CAATCTGAATTCCGGTCTCCC
DNA 2: TGGTGGCTACGACGGGATT
B8: GAAGAUA (DNA:RNA)
RNA: B6 RNA with C25G, C26A, G27A, C28G, G29A
DNA 1: CAATCTGAATTCCGGTCTCCC
DNA 2: TGGTGGCTACGACGGGATT
B9: UGGCCGG (DNA:RNA)
RNA: B6 RNA with C25U, C26G, G29C, U30G, A31G
DNA 1: CAATCTGAATTCCGGTCTCCC
DNA 2: TGGTGGCTACGACGGGATT
B10: UCAAAAC (DNA:RNA)
RNA: B1 RNA with G25U, U26C, U27A, U29A
DNA 1: CAATCTGAATTCCGGTCTCCC
DNA 2: TGGTGGCTACGACGGGATT
B11: AUCGGCA (DNA:RNA)
RNA: B6 RNA with C25A, C26U, G27C, C28G, U30C
DNA 1: CAATCTGAATTCCGGTCTCCC
DNA 2: TGGTGGCTACGACGGGATT
B12: GUUGAUC (DNA:RNA)
RNA: B1 RNA with A28G, U29A, A30U
DNA 1: CAATCTGAATTCCGGTCTCCC
DNA 2: TGGTGGCTACGACGGGATT
B13: UCCGACA (DNA:RNA)
RNA: B6 RNA with C25U, G27C, C28G, G29A, U30C
DNA 1: CAATCTGAATTCCGGTCTCCC
DNA 2: TGGTGGCTACGACGGGATT
B14: AUGGCAC (DNA:RNA)
RNA: B1 RNA with G25A, U27G, A28G, U29C
DNA 1: CAATCTGAATTCCGGTCTCCC
DNA 2: TGGTGGCTACGACGGGATT
B15: CCCCGGG (DNA:RNA)
RNA: B6 RNA with G27C, U30G, A31G
DNA 1: CAATCTGAATTCCGGTCTCCC
DNA 2: TGGTGGCTACGACGGGATT
B16: GCCGACU (DNA:RNA)
RNA: B6 RNA with C25G, G27C, C28G, G29A, U30C, A31U
DNA 1: CAATCTGAATTCCGGTCTCCC
DNA 2: TGGTGGCTACGACGGGATT
B17: GUCGCUG (DNA:RNA)
RNA: B1 RNA with U27C, A28G, U29C, A30U, C31G
DNA 1: CAATCTGAATTCCGGTCTCCC
DNA 2: TGGTGGCTACGACGGGATT
B18: CCGGCUU (DNA:RNA)
RNA: B6 RNA with C28G, G29C, A31U
DNA 1: CAATCTGAATTCCGGTCTCCC
DNA 2: TGGTGGCTACGACGGGATT
B19: CUUAAAC (DNA:RNA)
RNA: B1 RNA with G25C, U29A
DNA 1: CAATCTGAATTCCGGTCTCCC
DNA 2: TGGTGGCTACGACGGGATT
B20: GAUGUAC (DNA:RNA)
RNA: B1 RNA with U26A, A28G
DNA 1: CAATCTGAATTCCGGTCTCCC
DNA 2: TGGTGGCTACGACGGGATT
B21: GCGUCUC (DNA:RNA)
RNA: B6 RNA with C25G, C28U, G29C, A31C
DNA 1: CAATCTGAATTCCGGTCTCCC
DNA 2: TGGTGGCTACGACGGGATT
B22: AGCCAAU (DNA:RNA)
RNA: B6 RNA with C25A, C26G, G27C, G29A, U30A, A31U
DNA 1: CAATCTGAATTCCGGTCTCCC
DNA 2: TGGTGGCTACGACGGGATT
B23: AGGAUCU (DNA:RNA)
RNA: B1 RNA with G25A, U26G, U27G, A30C, C31U
DNA 1: CAATCTGAATTCCGGTCTCCC
DNA 2: TGGTGGCTACGACGGGATT
B24: GGAGAUA (DNA:RNA)
RNA: B6 RNA with C25G, C26G, G27A, C28G, G29A
DNA 1: CAATCTGAATTCCGGTCTCCC
DNA 2: TGGTGGCTACGACGGGATT
B25: CAUCUUC (DNA:RNA)
RNA: B6 RNA with C26A, G27U, G29U, A31C
DNA 1: CAATCTGAATTCCGGTCTCCC
DNA 2: TGGTGGCTACGACGGGATT
B26: AAAUACG (DNA:RNA)
RNA: GGGAGACCGGAAUUCAGAUUGUCCAAAUACGUUAAAUCCCGUCGUAGCCACCA
DNA 1: CAATCTGAATTCCGGTCTCCC
DNA 2: TGGTGGCTACGACGGGATT
B27: AUAUGCU (DNA:RNA)
RNA: B26 RNA with A26U, A29G, G31U
DNA 1: CAATCTGAATTCCGGTCTCCC
DNA 2: TGGTGGCTACGACGGGATT
B28: CCUAGUU (DNA:RNA)
RNA: B6 RNA with G27U, C28A, A31U
DNA 1: CAATCTGAATTCCGGTCTCCC
DNA 2: TGGTGGCTACGACGGGATT
B29: AUUGAAU (DNA:RNA)
RNA: B1 RNA with G25A, A28G, U29A, C31U
DNA 1: CAATCTGAATTCCGGTCTCCC
DNA 2: TGGTGGCTACGACGGGATT
B30: CUUUCUU (DNA:RNA)
RNA: B6 RNA with C26U, G27U, C28U, G29C, A31U
DNA 1: CAATCTGAATTCCGGTCTCCC
DNA 2: TGGTGGCTACGACGGGATT
B31: AAAUUGG (DNA:RNA)
RNA: B26 RNA with A29U, C30G
DNA 1: CAATCTGAATTCCGGTCTCCC
DNA 2: TGGTGGCTACGACGGGATT

Numbering of substitutions follows the chain as printed; changes in the protein carry UniProt numbers. Some of the results follow.

The experiment concerns the target T1, RBFOX1 RRM. Briefly: EMSA; HiTS-Eq, 1 nM pool, 10 min; buffer printed only for the single-RNA assays: 10 mM Tris pH 7.5, 150 mM NaCl, 3.4 mM EDTA, 0.001% NP-40, 30 C. To be noted: tags: His6 N-terminal (pET28a); label: 5' 32P. Put shortly:
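These values rest on relative association constants, computed from read-count changes of each RNA species versus the control reaction and normalised to the cognate motif. Reads came from free RNA recovered by 8% native PAGE after purified RbFox RRM (wild type or mutant) at increasing concentrations was equilibrated for 10 min in 50 µL with 1 nM of a 5′-radiolabelled pool with 7 randomized nucleotides and DNA-annealed flanks.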
On the technique in general: A gel shift assay detects complexes by their altered migration in electrophoresis.
As to B1, the binding signal was 0.00651 KA relative to UGCAUGU.
For the molecule B2, the binding signal was 0.00742 KA relative to UGCAUGU.
Turning to B3, the binding signal is 0.000252 KA relative to UGCAUGU.
B4: the binding signal is 0.0101 KA relative to UGCAUGU.
For B5, the binding signal was 0.00496 KA relative to UGCAUGU.
Under B6 stands 0.00752 KA relative to UGCAUGU.
Take B7: the binding signal is 0.00795 KA relative to UGCAUGU.
For B8, the binding signal is 0.00918 KA relative to UGCAUGU.
Take B9: the binding signal is 0.0318 KA relative to UGCAUGU.
Under B10 stands 0.00177 KA relative to UGCAUGU; under B11, 0.00854 KA relative to UGCAUGU; under B12, 0.0229 KA relative to UGCAUGU.
As for B13, the binding signal was 0.00816 KA relative to UGCAUGU.
With B14, the binding signal is 0.0109 KA relative to UGCAUGU.
As for B15, the binding signal was 0.00595 KA relative to UGCAUGU.
Regarding B16, the binding signal is 0.0127 KA relative to UGCAUGU.
Under B17 stands 0.0207 KA relative to UGCAUGU; under B18, 0.0161 KA relative to UGCAUGU; under B19, 0.00387 KA relative to UGCAUGU.
Consider B20, for which the binding signal was 0.016 KA relative to UGCAUGU.
Consider B21, for which the binding signal was 0.00853 KA relative to UGCAUGU.
For B22, the binding signal was 0.00281 KA relative to UGCAUGU.
As for B23, the binding signal is 0.016 KA relative to UGCAUGU.
As to B24, the binding signal was 0.0149 KA relative to UGCAUGU.
With B25 the figure was 0.00151 KA relative to UGCAUGU.
For the molecule B26, the binding signal is 0.00384 KA relative to UGCAUGU.
Regarding B27, the binding signal is 0.00817 KA relative to UGCAUGU.
As for B28, the binding signal was 0.00703 KA relative to UGCAUGU.
Regarding B29, the binding signal is 0.00729 KA relative to UGCAUGU.
With B30, the binding signal is 0.0102 KA relative to UGCAUGU.
In the case of B31, the binding signal is 0.00858 KA relative to UGCAUGU.
